This note sets out measurements from article PMC4336329 (PLoS ONE, 2015).

The whole screen tested about 310,000 compounds, of which about 14,000 (4.5%) showed an effect of 50% or more. Effects have a minus sign here. This is one part of the list.
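Also: peak tail current of the secondary pulse compared with the same well before compound.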

The target in this test is human ether-à-go-go-related gene (hERG) potassium channel (human, UniProt Q12809). Kind of test: primary screen, population patch clamp on CHO cells stably expressing hERG.
human ether-à-go-go-related gene (hERG) potassium channel, sequence (Q12809 whole entry, looked up): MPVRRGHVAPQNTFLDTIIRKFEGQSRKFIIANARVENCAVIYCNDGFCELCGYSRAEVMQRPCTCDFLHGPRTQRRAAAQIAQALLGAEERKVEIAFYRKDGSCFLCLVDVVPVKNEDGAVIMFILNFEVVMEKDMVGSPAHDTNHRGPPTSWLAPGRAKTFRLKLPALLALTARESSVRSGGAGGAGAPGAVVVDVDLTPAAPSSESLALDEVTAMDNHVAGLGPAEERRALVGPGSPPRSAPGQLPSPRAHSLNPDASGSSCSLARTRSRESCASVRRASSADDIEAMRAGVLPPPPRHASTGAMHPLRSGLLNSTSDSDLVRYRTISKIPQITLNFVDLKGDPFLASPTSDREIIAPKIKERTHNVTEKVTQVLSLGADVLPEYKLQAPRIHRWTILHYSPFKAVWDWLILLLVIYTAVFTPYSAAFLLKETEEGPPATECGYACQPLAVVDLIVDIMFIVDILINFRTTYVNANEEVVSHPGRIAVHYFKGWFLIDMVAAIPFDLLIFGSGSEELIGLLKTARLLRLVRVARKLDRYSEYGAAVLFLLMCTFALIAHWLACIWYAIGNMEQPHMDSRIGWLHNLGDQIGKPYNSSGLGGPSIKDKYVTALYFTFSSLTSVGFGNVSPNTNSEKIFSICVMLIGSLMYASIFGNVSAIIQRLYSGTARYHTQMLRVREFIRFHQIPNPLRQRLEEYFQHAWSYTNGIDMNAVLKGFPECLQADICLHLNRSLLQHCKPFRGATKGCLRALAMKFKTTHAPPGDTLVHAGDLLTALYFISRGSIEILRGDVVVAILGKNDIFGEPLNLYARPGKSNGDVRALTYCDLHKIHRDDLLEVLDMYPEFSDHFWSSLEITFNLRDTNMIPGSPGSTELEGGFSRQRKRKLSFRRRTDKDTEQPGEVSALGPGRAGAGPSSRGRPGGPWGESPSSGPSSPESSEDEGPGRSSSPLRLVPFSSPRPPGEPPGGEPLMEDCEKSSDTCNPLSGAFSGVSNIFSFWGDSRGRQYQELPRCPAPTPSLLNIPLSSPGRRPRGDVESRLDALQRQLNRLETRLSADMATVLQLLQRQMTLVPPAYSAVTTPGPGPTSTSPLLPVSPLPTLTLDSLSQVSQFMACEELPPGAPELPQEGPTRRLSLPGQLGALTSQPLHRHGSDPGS
Turning to `COc1ccccc1/C=N/Nc1cc(C)nc2ccc(C)cc12`, the “hERG current change (%, negative = inhibition) at 10uM” value is reported as 7.89%.

Take `CCC1=C(OC(=O)N(CC)CC)N2C(=O)OC(=NCCc3c[nH]c4ccccc34)[C@]2(C)[C@H]2C1=CC[C@H]1C(=O)NC(=O)[C@H]12`: the “hERG current change (%, negative = inhibition) at 10uM” value was 2.9%.

Regarding `Cc1ccc(-n2c(N)c(C(=O)Nc3ccccc3F)sc2=S)cc1C`, the “hERG current change (%, negative = inhibition) at 10uM” value was determined as 22.9%.

Take `CCN(CC)S(=O)(=O)c1ccc(N2CCOCC2)c(NC(=O)c2cc(=O)[nH]c3ccccc23)c1`: the “hERG current change (%, negative = inhibition) at 10uM” value is given as -12.1%.

With `Nc1nc(CSc2nc3ccccc3s2)nc(Nc2ccccc2)n1`, the “hERG current change (%, negative = inhibition) at 10uM” value came out at 6.54%.

Regarding `CCCCN(C)C(=O)Cn1ncc2c3ccccc3n(CCC)c2c1=O`, the “hERG current change (%, negative = inhibition) at 10uM” value was -42%.

Take `Cc1cc(C(=O)NCc2cc(C(=O)O)co2)co1`: the “hERG current change (%, negative = inhibition) at 10uM” value is listed as 13.4%.

In the case of `COc1ccc(C(=O)COC(=O)c2nn(C)c(=O)c3ccccc23)c(OC)c1`, the “hERG current change (%, negative = inhibition) at 10uM” value is 17.7%.

Consider `Cc1cc(S(=O)(=O)Nc2nc(CN3CCOCC3)nc3sc4c(c23)CCCC4)ccc1F`, for which the “hERG current change (%, negative = inhibition) at 10uM” value is -17.2%.

For the compound `Cc1ccc(OCCCC(=O)NC(C)c2ccccc2)c(C)c1` (stereo not drawn), the “hERG current change (%, negative = inhibition) at 10uM” value was -34.8%.

As for `CN(C)c1nc(Nn2cnnc2)nc(N(C)C)n1`, the “hERG current change (%, negative = inhibition) at 10uM” value is reported as 9.61%.

On to `NC(=O)CSc1nc2sc(-c3ccccc3)cc2c(=O)n1N`, for which the “hERG current change (%, negative = inhibition) at 10uM” value was found to be 11%.

For `Cc1ccccc1-c1cc2c(nn1)-c1ccccc1C2=O`, the “hERG current change (%, negative = inhibition) at 10uM” value amounted to 5.78%.

Regarding `Cc1ccc(-c2nc3cccnc3s2)cc1NS(C)(=O)=O`, the “hERG current change (%, negative = inhibition) at 10uM” value is on record as 2.25%.

With `COc1ccc(-c2nc3c(c(=O)[nH]c(=O)n3Cc3ccccc3)n2C)cc1`, the “hERG current change (%, negative = inhibition) at 10uM” value worked out at 15%.

In the case of `CCOc1ccc(S(=O)(=O)Nc2ccc(C(=O)NCC3(N4CCCCC4)CCCCC3)cc2)cc1`, the “hERG current change (%, negative = inhibition) at 10uM” value was -45.8%.

Regarding `COc1cccc(C2(O)CCSCC2CN(C)C)c1.Cl` (stereo not drawn), the “hERG current change (%, negative = inhibition) at 10uM” value came out at 10.8%.

`O=C(CN1CCC(NC(=O)Cc2ccccc2)CC1)Nc1cccc2ccccc12`: the “hERG current change (%, negative = inhibition) at 10uM” value is given as -27%.

With `Cc1cc(C)nc(N2CCC(C(=O)NC3CC3)CC2)n1`, the “hERG current change (%, negative = inhibition) at 10uM” value is given as -4.98%.

Consider `CCOc1ccccc1C1C2=C(COC2=O)Nc2cc3c(cc21)OCO3` (stereo not drawn), for which the “hERG current change (%, negative = inhibition) at 10uM” value turned out to be 17.9%.

With `Cc1ccc(CN(Cc2cccnc2)C(=O)CN2C(=O)COc3ccccc32)o1`, the “hERG current change (%, negative = inhibition) at 10uM” value is reported as -1.88%.

Consider `COc1ccc(N2CC(C(=O)Nc3ccc4c(c3)OCO4)CC2=O)cc1` (stereo not drawn), for which the “hERG current change (%, negative = inhibition) at 10uM” value was determined as 4.3%.

Regarding `Cc1ccc(-c2nnn(CC(=O)N(CC(=O)NC3CCCC3)c3cccc(F)c3)n2)o1`, the “hERG current change (%, negative = inhibition) at 10uM” value came to 11.4%.

Take `CCOc1ccc(-n2c(SC(C)C)nc3c(c2=O)SCC3)cc1`: the “hERG current change (%, negative = inhibition) at 10uM” value is given as 18.4%.
